Some of the results follow. The list includes weakly bound sequences.
molecular target: T1, MBP-FoxP3dN (UniProt Q99JB6); assay: PD-seq (MBP pull-down with sequencing); details: 20 mM Tris-HCl pH 7.5, 100 mM NaCl, 1.5 mM MgCl2, 0.4 uM protein, 0.1 uM dsDNA library, 30 min, room temperature, amylose pull-down; high values mean tight binding; double strand, one strand shown
T1 sequence: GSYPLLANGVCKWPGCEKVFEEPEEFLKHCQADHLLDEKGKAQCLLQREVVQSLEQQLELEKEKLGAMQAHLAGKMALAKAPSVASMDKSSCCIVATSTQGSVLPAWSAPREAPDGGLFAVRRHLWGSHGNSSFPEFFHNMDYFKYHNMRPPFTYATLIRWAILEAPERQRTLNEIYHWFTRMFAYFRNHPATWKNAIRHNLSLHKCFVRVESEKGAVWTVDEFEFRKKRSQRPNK

Sequence	binding signal (RPM ratio (pull-down/input))
GATGATTGTTCTCCCAGCTGATGAATTCGAAACTTCGAGTAAACAAATTTTCCTAATCTTTCTGTTCAAGCGCCATCTAC	0.319
GATGATTGTTCTCCCAGCTGATGAATTCTATCGATCGAGTAAACAAATTTTCCTAATCTTTCTGTTCAAGCGCCATCTAC	0.418
GATGATTGTTCTCCCAGCTGATGAATTCCTATGATCGAGTAAACAAATTTTCCTAATCTTTCTGTTCAAGCGCCATCTAC	0.311
GATGATTGTTCTCCCAGCTGATGAATTTAAGGAGTCGAGTAAACAAATTTTCCTAATCTTTCTGTTCAAGCGCCATCTAC	0.228
GATGATTGTTCTCCCAGCTGATGAATTTTGTTCATCGAGTAAACAAATTTTCCTAATCTTTCTGTTCAAGCGCCATCTAC	1.34
GATGATTGTTCTCCCAGCTGATGAATTGTATTAATCGAGTAAACAAATTTTCCTAATCTTTCTGTTCAAGCGCCATCTAC	1.04
GATGATTGTTCTCCCAGCTGATGAATTGAAGCTCTCGAGTAAACAAATTTTCCTAATCTTTCTGTTCAAGCGCCATCTAC	0.336
GATGATTGTTCTCCCAGCTGATGAATTGTTTTGCTCGAGTAAACAAATTTTCCTAATCTTTCTGTTCAAGCGCCATCTAC	3.65
GATGATTGTTCTCCCAGCTGATGAATTCTGGCAGTCGAGTAAACAAATTTTCCTAATCTTTCTGTTCAAGCGCCATCTAC	0.34
GATGATTGTTCTCCCAGCTGATGAATTCCTACGTTCGAGTAAACAAATTTTCCTAATCTTTCTGTTCAAGCGCCATCTAC	0.294
GATGATTGTTCTCCCAGCTGATGAATTCACCGTATCGAGTAAACAAATTTTCCTAATCTTTCTGTTCAAGCGCCATCTAC	0.49
GATGATTGTTCTCCCAGCTGATGAATTTTGCACGTCGAGTAAACAAATTTTCCTAATCTTTCTGTTCAAGCGCCATCTAC	3.32
GATGATTGTTCTCCCAGCTGATGAATTTTTGTGCTCGAGTAAACAAATTTTCCTAATCTTTCTGTTCAAGCGCCATCTAC	0.442
GATGATTGTTCTCCCAGCTGATGAATTCAGGACTTCGAGTAAACAAATTTTCCTAATCTTTCTGTTCAAGCGCCATCTAC	0.328
GATGATTGTTCTCCCAGCTGATGAATTTGGAACGTCGAGTAAACAAATTTTCCTAATCTTTCTGTTCAAGCGCCATCTAC	0.355
GATGATTGTTCTCCCAGCTGATGAATTAAAAATATCGAGTAAACAAATTTTCCTAATCTTTCTGTTCAAGCGCCATCTAC	0.441
GATGATTGTTCTCCCAGCTGATGAATTCCCTCCATCGAGTAAACAAATTTTCCTAATCTTTCTGTTCAAGCGCCATCTAC	0.264
GATGATTGTTCTCCCAGCTGATGAATTCGTGGGCTCGAGTAAACAAATTTTCCTAATCTTTCTGTTCAAGCGCCATCTAC	0.512
GATGATTGTTCTCCCAGCTGATGAATTTAGAGTATCGAGTAAACAAATTTTCCTAATCTTTCTGTTCAAGCGCCATCTAC	0.816
GATGATTGTTCTCCCAGCTGATGAATTGATGCATTCGAGTAAACAAATTTTCCTAATCTTTCTGTTCAAGCGCCATCTAC	6.87
GATGATTGTTCTCCCAGCTGATGAATTACCTTTGTCGAGTAAACAAATTTTCCTAATCTTTCTGTTCAAGCGCCATCTAC	0.396

Sequence	binding signal (RPM ratio (pull-down/input))
GATGATTGTTCTCCCAGCTGATGAATTTAACGGTTCGAGTAAACAAATTTTCCTAATCTTTCTGTTCAAGCGCCATCTAC	0.415
GATGATTGTTCTCCCAGCTGATGAATTCCGTAAATCGAGTAAACAAATTTTCCTAATCTTTCTGTTCAAGCGCCATCTAC	0.308
GATGATTGTTCTCCCAGCTGATGAATTAAGATTATCGAGTAAACAAATTTTCCTAATCTTTCTGTTCAAGCGCCATCTAC	0.835
GATGATTGTTCTCCCAGCTGATGAATTGACTACTTCGAGTAAACAAATTTTCCTAATCTTTCTGTTCAAGCGCCATCTAC	0.404
GATGATTGTTCTCCCAGCTGATGAATTCAATATGTCGAGTAAACAAATTTTCCTAATCTTTCTGTTCAAGCGCCATCTAC	1.43
GATGATTGTTCTCCCAGCTGATGAATTTGCGTGATCGAGTAAACAAATTTTCCTAATCTTTCTGTTCAAGCGCCATCTAC	2.35
GATGATTGTTCTCCCAGCTGATGAATTGCGCCTTTCGAGTAAACAAATTTTCCTAATCTTTCTGTTCAAGCGCCATCTAC	6.82
GATGATTGTTCTCCCAGCTGATGAATTCCCTTCCTCGAGTAAACAAATTTTCCTAATCTTTCTGTTCAAGCGCCATCTAC	0.222
GATGATTGTTCTCCCAGCTGATGAATTAAGTGAATCGAGTAAACAAATTTTCCTAATCTTTCTGTTCAAGCGCCATCTAC	0.328
GATGATTGTTCTCCCAGCTGATGAATTCACATCTTCGAGTAAACAAATTTTCCTAATCTTTCTGTTCAAGCGCCATCTAC	0.465
GATGATTGTTCTCCCAGCTGATGAATTACTCCGGTCGAGTAAACAAATTTTCCTAATCTTTCTGTTCAAGCGCCATCTAC	0.189
GATGATTGTTCTCCCAGCTGATGAATTGCGGGAATCGAGTAAACAAATTTTCCTAATCTTTCTGTTCAAGCGCCATCTAC	0.552
GATGATTGTTCTCCCAGCTGATGAATTCTACGGTTCGAGTAAACAAATTTTCCTAATCTTTCTGTTCAAGCGCCATCTAC	0.317
GATGATTGTTCTCCCAGCTGATGAATTGCACGATTCGAGTAAACAAATTTTCCTAATCTTTCTGTTCAAGCGCCATCTAC	0.697
GATGATTGTTCTCCCAGCTGATGAATTAGCGCACTCGAGTAAACAAATTTTCCTAATCTTTCTGTTCAAGCGCCATCTAC	0.612
GATGATTGTTCTCCCAGCTGATGAATTTGCGAGATCGAGTAAACAAATTTTCCTAATCTTTCTGTTCAAGCGCCATCTAC	0.519
GATGATTGTTCTCCCAGCTGATGAATTCAAGTCATCGAGTAAACAAATTTTCCTAATCTTTCTGTTCAAGCGCCATCTAC	0.377
GATGATTGTTCTCCCAGCTGATGAATTGGAATCCTCGAGTAAACAAATTTTCCTAATCTTTCTGTTCAAGCGCCATCTAC	0.459
GATGATTGTTCTCCCAGCTGATGAATTATAGCCGTCGAGTAAACAAATTTTCCTAATCTTTCTGTTCAAGCGCCATCTAC	0.504
GATGATTGTTCTCCCAGCTGATGAATTAGAAAGTTCGAGTAAACAAATTTTCCTAATCTTTCTGTTCAAGCGCCATCTAC	0.216
GATGATTGTTCTCCCAGCTGATGAATTACGAAATTCGAGTAAACAAATTTTCCTAATCTTTCTGTTCAAGCGCCATCTAC	0.516

Sequence	binding signal (RPM ratio (pull-down/input))
GATGATTGTTCTCCCAGCTGATGAATTGACCTAGTCGAGTAAACAAATTTTCCTAATCTTTCTGTTCAAGCGCCATCTAC	0.234
GATGATTGTTCTCCCAGCTGATGAATTGGAGACCTCGAGTAAACAAATTTTCCTAATCTTTCTGTTCAAGCGCCATCTAC	0.233
GATGATTGTTCTCCCAGCTGATGAATTGTTTCAGTCGAGTAAACAAATTTTCCTAATCTTTCTGTTCAAGCGCCATCTAC	0.499
GATGATTGTTCTCCCAGCTGATGAATTATCAGTTTCGAGTAAACAAATTTTCCTAATCTTTCTGTTCAAGCGCCATCTAC	0.358
GATGATTGTTCTCCCAGCTGATGAATTGTAACCATCGAGTAAACAAATTTTCCTAATCTTTCTGTTCAAGCGCCATCTAC	1.1
GATGATTGTTCTCCCAGCTGATGAATTATTTAACTCGAGTAAACAAATTTTCCTAATCTTTCTGTTCAAGCGCCATCTAC	0.39
GATGATTGTTCTCCCAGCTGATGAATTATATACCTCGAGTAAACAAATTTTCCTAATCTTTCTGTTCAAGCGCCATCTAC	0.711
GATGATTGTTCTCCCAGCTGATGAATTGGAACTATCGAGTAAACAAATTTTCCTAATCTTTCTGTTCAAGCGCCATCTAC	0.36
GATGATTGTTCTCCCAGCTGATGAATTAGGAAACTCGAGTAAACAAATTTTCCTAATCTTTCTGTTCAAGCGCCATCTAC	0.56
GATGATTGTTCTCCCAGCTGATGAATTGTCATATTCGAGTAAACAAATTTTCCTAATCTTTCTGTTCAAGCGCCATCTAC	0.683
GATGATTGTTCTCCCAGCTGATGAATTGCATACTTCGAGTAAACAAATTTTCCTAATCTTTCTGTTCAAGCGCCATCTAC	1.27
GATGATTGTTCTCCCAGCTGATGAATTCCGCCCTTCGAGTAAACAAATTTTCCTAATCTTTCTGTTCAAGCGCCATCTAC	1.71
GATGATTGTTCTCCCAGCTGATGAATTTCCACGCTCGAGTAAACAAATTTTCCTAATCTTTCTGTTCAAGCGCCATCTAC	0.314
GATGATTGTTCTCCCAGCTGATGAATTGTCAGGATCGAGTAAACAAATTTTCCTAATCTTTCTGTTCAAGCGCCATCTAC	0.249
GATGATTGTTCTCCCAGCTGATGAATTAGCTATATCGAGTAAACAAATTTTCCTAATCTTTCTGTTCAAGCGCCATCTAC	0.669
GATGATTGTTCTCCCAGCTGATGAATTCCCCGGTTCGAGTAAACAAATTTTCCTAATCTTTCTGTTCAAGCGCCATCTAC	0.197
GATGATTGTTCTCCCAGCTGATGAATTCATCTAGTCGAGTAAACAAATTTTCCTAATCTTTCTGTTCAAGCGCCATCTAC	0.354
GATGATTGTTCTCCCAGCTGATGAATTACTCACATCGAGTAAACAAATTTTCCTAATCTTTCTGTTCAAGCGCCATCTAC	0.839
GATGATTGTTCTCCCAGCTGATGAATTGAGCGTATCGAGTAAACAAATTTTCCTAATCTTTCTGTTCAAGCGCCATCTAC	1.08
GATGATTGTTCTCCCAGCTGATGAATTAGTCCAATCGAGTAAACAAATTTTCCTAATCTTTCTGTTCAAGCGCCATCTAC	0.342
GATGATTGTTCTCCCAGCTGATGAATTGCAAGCTTCGAGTAAACAAATTTTCCTAATCTTTCTGTTCAAGCGCCATCTAC	0.843

Source: paper PMC12820563
